No constants are given. Whether binding was seen depends on the method and setting. In cells and extracts the contact can be indirect. Some entries that bind do so weakly or less than the wild type. For some of these results: Tags and fused reporters may be left off the sequences shown.

By UniProt entry, the sequences of proteins in these tests, tags left out. Where a name states a change or a piece, a line headed by the entry shows the natural chain unless it says otherwise. Chains listed by the source or under a name are the forms on record and can include a tag or linker. Residues count along the entry.
importin‐α‐myc (wild type) (Q02821, residues 1-530): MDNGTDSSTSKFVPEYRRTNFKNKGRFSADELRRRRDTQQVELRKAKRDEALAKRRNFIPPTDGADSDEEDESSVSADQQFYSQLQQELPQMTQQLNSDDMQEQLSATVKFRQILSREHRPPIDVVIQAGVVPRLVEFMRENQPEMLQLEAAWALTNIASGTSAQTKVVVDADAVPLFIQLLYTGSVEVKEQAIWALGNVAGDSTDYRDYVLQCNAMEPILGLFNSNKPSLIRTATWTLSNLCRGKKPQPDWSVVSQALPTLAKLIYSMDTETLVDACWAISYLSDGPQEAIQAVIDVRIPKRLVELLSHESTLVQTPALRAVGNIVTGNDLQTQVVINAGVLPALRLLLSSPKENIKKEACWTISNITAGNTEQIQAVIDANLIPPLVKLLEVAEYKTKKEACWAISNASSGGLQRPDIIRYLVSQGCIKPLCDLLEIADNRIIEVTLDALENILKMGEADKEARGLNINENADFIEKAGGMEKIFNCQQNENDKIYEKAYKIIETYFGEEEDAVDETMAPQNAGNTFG
R44A importin‐α‐myc (Q02821, form named): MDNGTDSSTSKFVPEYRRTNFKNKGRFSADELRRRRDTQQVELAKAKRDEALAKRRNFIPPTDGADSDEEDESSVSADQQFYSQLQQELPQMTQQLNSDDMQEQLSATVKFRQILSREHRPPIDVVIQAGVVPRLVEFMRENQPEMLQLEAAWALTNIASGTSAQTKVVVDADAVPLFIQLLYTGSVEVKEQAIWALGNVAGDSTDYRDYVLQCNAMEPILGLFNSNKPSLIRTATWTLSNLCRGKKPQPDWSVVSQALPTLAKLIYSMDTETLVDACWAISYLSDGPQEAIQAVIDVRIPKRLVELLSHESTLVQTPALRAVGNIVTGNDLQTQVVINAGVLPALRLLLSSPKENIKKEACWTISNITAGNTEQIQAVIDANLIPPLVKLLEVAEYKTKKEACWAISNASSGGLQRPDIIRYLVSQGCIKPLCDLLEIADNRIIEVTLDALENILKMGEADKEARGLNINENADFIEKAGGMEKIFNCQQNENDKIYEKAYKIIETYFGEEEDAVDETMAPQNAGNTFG
UniProt P32499: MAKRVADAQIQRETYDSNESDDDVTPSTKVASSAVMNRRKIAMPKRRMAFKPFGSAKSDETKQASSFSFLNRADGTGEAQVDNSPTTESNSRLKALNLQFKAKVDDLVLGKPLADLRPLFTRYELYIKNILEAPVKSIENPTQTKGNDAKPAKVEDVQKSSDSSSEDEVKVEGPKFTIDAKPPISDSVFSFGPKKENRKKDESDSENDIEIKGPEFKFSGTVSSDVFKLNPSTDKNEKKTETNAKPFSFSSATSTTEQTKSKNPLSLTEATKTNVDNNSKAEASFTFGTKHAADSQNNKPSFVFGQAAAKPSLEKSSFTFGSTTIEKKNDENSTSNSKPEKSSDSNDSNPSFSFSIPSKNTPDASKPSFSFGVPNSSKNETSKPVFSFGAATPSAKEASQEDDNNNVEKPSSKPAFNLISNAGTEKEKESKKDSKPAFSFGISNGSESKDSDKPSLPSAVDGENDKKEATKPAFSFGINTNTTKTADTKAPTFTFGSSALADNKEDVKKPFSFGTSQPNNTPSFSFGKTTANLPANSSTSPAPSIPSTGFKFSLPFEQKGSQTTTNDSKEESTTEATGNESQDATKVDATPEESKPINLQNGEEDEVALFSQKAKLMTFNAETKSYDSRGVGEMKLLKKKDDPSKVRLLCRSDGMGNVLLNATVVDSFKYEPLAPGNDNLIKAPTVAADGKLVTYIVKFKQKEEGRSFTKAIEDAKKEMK

One assay concerns the target importin‐α‐myc (wild type) (S. cerevisiae) (UniProt Q02821). The assay is described as follows: co-IP; c‐myc beads incubated overnight with 1 mg lysate of yeast cells expressing both Nup2‐GFP (wild type or variant) and importin‐α‐myc, in 500 μL PBSMT; bound and unbound fractions blotted with α‐GFP and α‐myc.
“K3E/R4D/R38A/R39A/R46A/R47A Nup2‐GFP (from UniProt P32499 1-720)”: the binding result was “no binding”. The same measure, in the same setting: as for “Δ50 Nup2‐GFP (from UniProt P32499 51-720) (domain or fragment)”, the entry is “no binding”; as for “Nup2‐GFP (wild type) (from UniProt P32499 1-720)”, “binds”. Turning to “R38A/R39A/R46A/R47A Nup2‐GFP (from UniProt P32499 1-720)”, the binding entry is “binds”. Still for that read-out and setting: as for “K3E/R4D Nup2‐GFP (from UniProt P32499 1-720)”, the entry is “binds”.

A further assay addresses T1, Cse1‐GST (wild type) (S. cerevisiae) (UniProt P33307).
T1 sequence: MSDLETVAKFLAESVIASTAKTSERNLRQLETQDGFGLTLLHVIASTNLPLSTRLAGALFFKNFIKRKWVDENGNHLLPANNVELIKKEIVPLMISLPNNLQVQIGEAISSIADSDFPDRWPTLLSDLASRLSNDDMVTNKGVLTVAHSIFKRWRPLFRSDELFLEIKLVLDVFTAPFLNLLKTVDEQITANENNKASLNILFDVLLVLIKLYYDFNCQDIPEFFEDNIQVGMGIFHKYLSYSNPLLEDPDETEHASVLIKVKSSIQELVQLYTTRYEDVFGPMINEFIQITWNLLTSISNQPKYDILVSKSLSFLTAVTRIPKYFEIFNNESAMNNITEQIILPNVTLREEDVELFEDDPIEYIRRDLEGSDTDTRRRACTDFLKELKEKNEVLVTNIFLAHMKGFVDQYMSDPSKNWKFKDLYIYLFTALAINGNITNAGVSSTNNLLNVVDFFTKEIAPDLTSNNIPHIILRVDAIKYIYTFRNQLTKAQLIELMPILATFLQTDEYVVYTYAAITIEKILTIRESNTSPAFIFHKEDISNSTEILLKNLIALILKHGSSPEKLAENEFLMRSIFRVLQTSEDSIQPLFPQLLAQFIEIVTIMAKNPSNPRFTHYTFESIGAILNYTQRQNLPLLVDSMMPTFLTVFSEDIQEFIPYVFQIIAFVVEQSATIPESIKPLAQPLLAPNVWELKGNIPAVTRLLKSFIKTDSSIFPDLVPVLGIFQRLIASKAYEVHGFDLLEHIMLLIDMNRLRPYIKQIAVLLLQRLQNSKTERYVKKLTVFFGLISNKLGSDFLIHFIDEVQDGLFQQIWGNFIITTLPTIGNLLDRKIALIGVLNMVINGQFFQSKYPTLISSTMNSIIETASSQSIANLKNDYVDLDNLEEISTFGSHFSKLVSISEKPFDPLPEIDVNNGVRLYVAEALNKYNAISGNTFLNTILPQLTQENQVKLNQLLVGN
Put plainly: pull-down; Cse1‐GST on glutathione‐Sepharose beads (50 μL slurry) incubated overnight with 2 mg total yeast lysate containing importin‐α‐myc variants; washed with PBSMT (PBS, 5 mM MgCl2, 0.5% Triton X‐100) and PBS; bound and unbound fractions blotted with α‐myc and α‐GST; only the target purified.
For the substance “importin‐α‐myc (wild type) (from UniProt Q02821 1-530)”, the binding entry is “binds”. The same measure, in the same setting: the result for “R44A importin‐α‐myc (from UniProt Q02821 1-530)” reads “binds”.

The record behind these values is article PMC7891619.
